In PMC3972091 one finds binding data, which are given here for seven molecules.

The chains behind the UniProt entries cited, without tags or fusion partners.
UniProt P40222: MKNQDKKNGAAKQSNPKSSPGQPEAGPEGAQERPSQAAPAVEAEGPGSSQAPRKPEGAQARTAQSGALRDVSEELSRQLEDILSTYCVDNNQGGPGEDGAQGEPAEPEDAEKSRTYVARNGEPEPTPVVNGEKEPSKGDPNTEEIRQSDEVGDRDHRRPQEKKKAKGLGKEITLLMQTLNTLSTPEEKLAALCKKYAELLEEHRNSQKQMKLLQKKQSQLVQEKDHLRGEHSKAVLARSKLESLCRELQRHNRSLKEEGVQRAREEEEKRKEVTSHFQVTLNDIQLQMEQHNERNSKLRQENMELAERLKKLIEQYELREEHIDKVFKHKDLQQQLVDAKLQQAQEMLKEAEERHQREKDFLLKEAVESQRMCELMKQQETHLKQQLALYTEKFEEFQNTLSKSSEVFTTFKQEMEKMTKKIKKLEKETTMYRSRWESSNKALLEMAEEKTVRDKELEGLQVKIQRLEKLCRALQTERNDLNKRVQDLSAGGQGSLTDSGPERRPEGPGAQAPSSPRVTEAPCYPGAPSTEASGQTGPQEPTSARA
UniProt Q13596: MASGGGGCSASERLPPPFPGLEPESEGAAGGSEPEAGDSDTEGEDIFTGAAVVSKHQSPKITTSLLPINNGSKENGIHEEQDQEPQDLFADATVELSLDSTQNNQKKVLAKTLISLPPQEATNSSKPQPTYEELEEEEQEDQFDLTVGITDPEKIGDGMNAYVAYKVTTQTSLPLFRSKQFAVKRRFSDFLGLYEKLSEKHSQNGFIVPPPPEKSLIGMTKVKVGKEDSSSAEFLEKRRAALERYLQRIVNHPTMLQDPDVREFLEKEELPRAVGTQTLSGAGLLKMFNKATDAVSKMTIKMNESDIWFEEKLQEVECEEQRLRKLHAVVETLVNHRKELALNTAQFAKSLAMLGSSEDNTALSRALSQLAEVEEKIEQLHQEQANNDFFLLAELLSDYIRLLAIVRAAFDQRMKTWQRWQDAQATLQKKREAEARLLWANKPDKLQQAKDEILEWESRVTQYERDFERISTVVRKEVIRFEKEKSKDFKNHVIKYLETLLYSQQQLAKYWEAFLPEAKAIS

The target in one assay is T1, HA-SNX4 (human) (UniProt O95219).
T1 sequence: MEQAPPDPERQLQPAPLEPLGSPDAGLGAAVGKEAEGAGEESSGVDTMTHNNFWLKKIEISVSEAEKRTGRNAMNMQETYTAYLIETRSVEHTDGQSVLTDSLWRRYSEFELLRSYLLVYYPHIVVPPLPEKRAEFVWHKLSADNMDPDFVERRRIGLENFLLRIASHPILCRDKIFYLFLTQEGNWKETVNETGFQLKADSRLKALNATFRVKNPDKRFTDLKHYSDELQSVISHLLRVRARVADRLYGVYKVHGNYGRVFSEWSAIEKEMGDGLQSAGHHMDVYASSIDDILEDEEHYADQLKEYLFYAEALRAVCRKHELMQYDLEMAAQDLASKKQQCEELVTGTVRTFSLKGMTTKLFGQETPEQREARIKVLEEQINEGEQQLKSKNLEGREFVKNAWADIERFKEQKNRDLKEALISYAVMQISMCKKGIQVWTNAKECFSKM
Nature of the assay: co-IP; HEK293 cells expressing HA-SNX4; lysate (1% NP-40, 20 mM Tris/HCl pH 8.0, 137 mM NaCl, 10% glycerol) immunoprecipitated with anti-HA antibody or nonimmune IgG on protein G sepharose, 4°C, 2 h; blotted with anti-HA and anti-α-taxilin (endogenous α-taxilin).

The target of assay [1] is myc-α-taxilin (UniProt P40222). As to the kind of experiment: co-IP; HEK293 cells co-expressing myc-α-taxilin and a GFP-SNX construct; lysate (1% NP-40, 20 mM Tris/HCl pH 8.0, 137 mM NaCl, 10% glycerol) immunoprecipitated with anti-myc antibody or nonimmune IgG on protein G sepharose, 4°C, 2 h; blotted with anti-myc and anti-GFP.
In assay [2] the target is myc-α-taxilin (UniProt P40222). The assay is described as above. The source holds these as a separate data set.

Like-named read-outs stand apart in the source and are kept apart here. No constants are given. Whether binding was seen depends on the method and setting. In cells and extracts the contact can be indirect. Some entries that bind do so weakly or less than the wild type. For some of these results: Where a sequence is shown, tags or fusion partners need not be part of it.

Consider “endogenous α-taxilin (from UniProt P40222 1-546)”, for which the binding result with HA-SNX4 (human) is on record as “binds”.

As for GFP-SNX1 (from UniProt Q13596 1-522), the binding entry with myc-α-taxilin [1] is given as “binds weakly”.

Regarding AWADIERFKEQKNRDLKEALISYAVMQISMCKKGIQVWTNAKECFSKM (domain or fragment, UniProt O95219 403-450) [GFP-SNX4 (403–450)], in the assay with myc-α-taxilin [2], the binding result was “no binding”.

B1: GFP-SNX4 (protein, UniProt O95219 1-450)
chain: T1 sequence
With B1, the binding result with myc-α-taxilin [2] is given as “binds”.

B2: GFP-SNX4 (residues 1–402) (domain or fragment, UniProt O95219 1-402)
chain: MEQAPPDPERQLQPAPLEPLGSPDAGLGAAVGKEAEGAGEESSGVDTMTHNNFWLKKIEISVSEAEKRTGRNAMNMQETYTAYLIETRSVEHTDGQSVLTDSLWRRYSEFELLRSYLLVYYPHIVVPPLPEKRAEFVWHKLSADNMDPDFVERRRIGLENFLLRIASHPILCRDKIFYLFLTQEGNWKETVNETGFQLKADSRLKALNATFRVKNPDKRFTDLKHYSDELQSVISHLLRVRARVADRLYGVYKVHGNYGRVFSEWSAIEKEMGDGLQSAGHHMDVYASSIDDILEDEEHYADQLKEYLFYAEALRAVCRKHELMQYDLEMAAQDLASKKQQCEELVTGTVRTFSLKGMTTKLFGQETPEQREARIKVLEEQINEGEQQLKSKNLEGREFVKN
For B2, in the assay with myc-α-taxilin [2], the binding entry is “no binding”.

B3: GFP-SNX4 (292–450) (domain or fragment, UniProt O95219 292-450)
chain: DILEDEEHYADQLKEYLFYAEALRAVCRKHELMQYDLEMAAQDLASKKQQCEELVTGTVRTFSLKGMTTKLFGQETPEQREARIKVLEEQINEGEQQLKSKNLEGREFVKNAWADIERFKEQKNRDLKEALISYAVMQISMCKKGIQVWTNAKECFSKM
For the molecule B3, the binding entry in the assay with myc-α-taxilin [2] is listed as “binds”.

B4: GFP-SNX4 (residues 1–189) (domain or fragment, UniProt O95219 1-189)
chain: MEQAPPDPERQLQPAPLEPLGSPDAGLGAAVGKEAEGAGEESSGVDTMTHNNFWLKKIEISVSEAEKRTGRNAMNMQETYTAYLIETRSVEHTDGQSVLTDSLWRRYSEFELLRSYLLVYYPHIVVPPLPEKRAEFVWHKLSADNMDPDFVERRRIGLENFLLRIASHPILCRDKIFYLFLTQEGNWKE
Turning to B4, the binding entry with myc-α-taxilin [2] is given as “no binding”.
